Measurements from the supplement of paper PMC4967469.
IC50 is the fitted dose that halves viability relative to control wells, and lower means more sensitive; a limit (>, <) means that the fit lies beyond the doses tested. The AUC spans the tested range (256-fold, ending at the top dose) of the same fit; the more sensitive the line, the further below 1. An inferred top dose was derived from the fitted curves, not read from the paper.

Assays:
Test in all cases: Viability of human cancer cell lines after 72 h of drug (GDSC screen)
SGC0946 = compound: CC(C)N(CCCNC(=O)Nc1ccc(C(C)(C)C)cc1)C[C@H]1O[C@@H](n2cc(Br)c3c(N)ncnc32)[C@H](O)[C@@H]1O [SGC0946]; settings: top dose 0.5 µM; top dose inferred
Procedure: (§1)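 Human cancer cell lines in 384-well plates, medium with 10% serum, drug for 72 h over a 256-fold dose range (nine 2-fold or five 4-fold steps up to the top dose). Adherent lines were fixed and stained with the nucleic acid dye Syto60, suspension lines read with resazurin; signal relative to control wells, capped at 0 and 100%. One two-parameter sigmoid per drug and line, fitted in a mixed model over all curves with the slope shared within a line.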

GW-2580 = compound: COc1ccc(COc2ccc(Cc3cnc(N)nc3N)cc2OC)cc1 [GW-2580]; settings: top dose 20 µM; top dose inferred
Procedure: as §1

Lenalidomide = compound: Nc1cccc2c1CN(C1CCC(=O)NC1=O)C2=O [Lenalidomide]; settings: top dose 5 µM; top dose inferred
Procedure: as §1

Row | Cell Line | AUC (SGC0946) | IC50 (SGC0946) [µM] | AUC (GW-2580) | IC50 (GW-2580) [µM] | AUC (Lenalidomide) | IC50 (Lenalidomide) [µM]
1 | SNU-407 (large intestine, adherent) | 0.981 | > 0.5 | 0.977 | > 20 | 0.98 | > 5
2 | KYAE-1 (oesophagus, suspension) | 0.981 | > 0.5 | 0.985 | > 20 | 0.967 | > 5
3 | MC-IXC (neuroblastoma, adherent) | 0.996 | > 0.5 | 0.996 | > 20 | 0.996 | > 5
4 | OV-7 (ovary, adherent) | 0.972 | > 0.5 | 0.966 | > 20 | 0.932 | > 5
5 | OC-314 (ovary, adherent) | 0.981 | > 0.5 | 0.984 | > 20 | 0.991 | > 5
6 | DOV13 (ovary, adherent) | 0.979 | > 0.5 | 0.979 | > 20 | 0.984 | > 5
7 | SK-MG-1 (glioma, adherent) | 0.979 | > 0.5 | 0.98 | > 20 | 0.987 | > 5
8 | HCC-366 (non-small cell lung carcinoma, adherent) | 0.987 | > 0.5 | – | – | 0.988 | > 5
9 | H513 (mesothelioma, semi-adherent) | 0.984 | > 0.5 | 0.986 | > 20 | 0.982 | > 5
10 | SK-MEL-31 (melanoma, adherent) | 0.982 | > 0.5 | – | – | 0.985 | > 5
11 | RCC-JF (kidney, adherent) | 0.978 | > 0.5 | 0.981 | > 20 | 0.98 | > 5
12 | SK-GT-4 (oesophagus, adherent) | 0.967 | > 0.5 | 0.978 | > 20 | 0.955 | > 5
13 | OACp4C (oesophagus, adherent) | 0.97 | > 0.5 | 0.982 | > 20 | 0.981 | > 5
14 | OACM5-1 (oesophagus, semi-adherent) | 0.984 | > 0.5 | 0.986 | > 20 | 0.982 | > 5
15 | KNS-62 (lung squamous cell carcinoma, adherent) | 0.975 | > 0.5 | – | – | 0.951 | > 5
16 | NCI-H146 (small cell lung carcinoma, suspension) | 0.995 | > 0.5 | – | – | 0.995 | > 5
17 | OVCA433 (ovary, adherent) | 0.974 | > 0.5 | 0.977 | > 20 | 0.985 | > 5
18 | SNU-C5 (large intestine, adherent) | 0.983 | > 0.5 | 0.973 | > 20 | 0.984 | > 5
19 | TC-YIK (cervix, suspension) | 0.989 | > 0.5 | – | – | 0.988 | > 5
20 | FLO-1 (oesophagus, adherent) | 0.972 | > 0.5 | 0.977 | > 20 | 0.975 | > 5
21 | D-566MG (glioma, adherent) | 0.984 | > 0.5 | 0.974 | > 20 | 0.971 | > 5

Row | Cell Line | AUC (SGC0946) | IC50 (SGC0946) [µM] | AUC (GW-2580) | IC50 (GW-2580) [µM] | AUC (Lenalidomide) | IC50 (Lenalidomide) [µM]
22 | D-247MG (glioma, adherent) | 0.977 | > 0.5 | 0.98 | > 20 | 0.979 | > 5
23 | BT-549 (breast, adherent) | 0.976 | > 0.5 | – | – | 0.971 | > 5
24 | EW-22 (Ewing sarcoma, adherent) | 0.987 | > 0.5 | – | – | 0.987 | > 5
25 | OVK-18 (ovary, adherent) | 0.984 | > 0.5 | 0.985 | > 20 | 0.926 | > 5
26 | NCI-H1105 (small cell lung carcinoma, suspension) | 0.987 | > 0.5 | – | – | 0.993 | > 5
27 | D-423MG (glioma, adherent) | 0.969 | > 0.5 | 0.953 | > 20 | 0.98 | > 5
28 | GAK (melanoma, adherent) | 0.989 | > 0.5 | – | – | 0.989 | > 5
29 | RCC-ER (kidney, adherent) | 0.963 | > 0.5 | 0.979 | > 20 | 0.986 | > 5
30 | D-336MG (glioma, adherent) | 0.978 | > 0.5 | 0.956 | > 20 | 0.977 | > 5
31 | ZR-75-30 (breast, adherent) | 0.981 | > 0.5 | – | – | 0.983 | > 5
32 | NCI-H508 (large intestine, semi-adherent) | 0.961 | > 0.5 | – | – | 0.928 | > 5
33 | JHOS-4 (ovary, adherent) | 0.976 | > 0.5 | – | – | 0.979 | > 5
34 | MOLT-16 (T-cell lymphoblastic leukaemia, suspension) | 0.992 | > 0.5 | – | – | 0.992 | > 5
35 | CADO-ES1 (Ewing sarcoma, suspension) | 0.958 | > 0.5 | 0.987 | > 20 | 0.977 | > 5
36 | MOLM-16 (acute myeloid leukaemia, suspension) | 0.988 | > 0.5 | – | – | 0.773 | 1.72
37 | Hey (ovary, adherent) | 0.987 | > 0.5 | 0.985 | > 20 | 0.972 | > 5
38 | SNU-81 (large intestine, adherent) | 0.98 | > 0.5 | 0.979 | > 20 | 0.953 | > 5
39 | CML-T1 (chronic myeloid leukaemia, suspension) | 0.987 | > 0.5 | – | – | 0.991 | > 5
40 | YH-13 (glioma, adherent) | 0.985 | > 0.5 | 0.986 | > 20 | 0.964 | > 5
41 | PEO1 (ovary, adherent) | 0.985 | > 0.5 | 0.969 | > 20 | 0.987 | > 5
42 | NB17 (neuroblastoma, adherent) | 0.982 | > 0.5 | 0.952 | > 20 | 0.975 | > 5

Row | Cell Line | AUC (SGC0946) | IC50 (SGC0946) [µM] | AUC (GW-2580) | IC50 (GW-2580) [µM] | AUC (Lenalidomide) | IC50 (Lenalidomide) [µM]
43 | NCI-H1341 (small cell lung carcinoma, suspension) | 0.99 | > 0.5 | – | – | 0.992 | > 5
44 | ESO26 (oesophagus, adherent) | 0.988 | > 0.5 | 0.989 | > 20 | 0.988 | > 5
45 | NCC021 (kidney, adherent) | 0.979 | > 0.5 | 0.975 | > 20 | 0.983 | > 5
46 | TE-4 (oesophagus, adherent) | 0.986 | > 0.5 | 0.977 | > 20 | 0.987 | > 5
47 | CL-40 (large intestine, adherent) | 0.965 | > 0.5 | – | – | 0.975 | > 5
48 | RH-18 (rhabdomyosarcoma, adherent) | 0.979 | > 0.5 | – | – | 0.979 | > 5
49 | EMC-BAC-2 (lung adenocarcinoma, adherent) | 0.978 | > 0.5 | 0.981 | > 20 | 0.978 | > 5
50 | RCC-FG2 (kidney, adherent) | 0.975 | > 0.5 | 0.981 | > 20 | 0.966 | > 5
51 | QGP-1 (pancreas, adherent) | 0.977 | > 0.5 | 0.968 | > 20 | 0.968 | > 5
52 | RCC-JW (kidney, adherent) | 0.981 | > 0.5 | 0.922 | > 20 | 0.986 | > 5
53 | SK-GT-2 (stomach, adherent) | 0.984 | > 0.5 | – | – | 0.951 | > 5
54 | RCH-ACV (B-cell leukaemia, suspension) | 0.991 | > 0.5 | – | – | 0.952 | > 5
55 | NCI-H2172 (non-small cell lung carcinoma, adherent) | 0.979 | > 0.5 | 0.982 | > 20 | 0.982 | > 5
56 | EMC-BAC-1 (lung adenocarcinoma, adherent) | 0.976 | > 0.5 | 0.967 | > 20 | 0.983 | > 5
57 | RCC-MF (kidney, adherent) | 0.953 | > 0.5 | 0.903 | > 20 | 0.98 | > 5
58 | CRO-AP2 (B-cell lymphoma, suspension) | 0.982 | > 0.5 | – | – | 0.735 | 1.31
59 | MOLT-13 (T-cell lymphoblastic leukaemia, suspension) | 0.988 | > 0.5 | 0.989 | > 20 | 0.973 | > 5
60 | RCC-AB (kidney, adherent) | 0.978 | > 0.5 | 0.953 | > 20 | 0.978 | > 5
61 | MHH-CALL-2 (B-cell leukaemia, suspension) | 0.997 | > 0.5 | – | – | 0.994 | > 5
62 | NCI-H630 (large intestine, adherent) | 0.987 | > 0.5 | 0.978 | > 20 | 0.976 | > 5
63 | SNU-61 (large intestine, adherent) | 0.976 | > 0.5 | 0.979 | > 20 | 0.985 | > 5

Row | Cell Line | AUC (SGC0946) | IC50 (SGC0946) [µM] | AUC (GW-2580) | IC50 (GW-2580) [µM] | AUC (Lenalidomide) | IC50 (Lenalidomide) [µM]
64 | COR-L321 (lung, suspension) | 0.988 | > 0.5 | 0.989 | > 20 | 0.974 | > 5
65 | JHOS-3 (ovary, adherent) | 0.982 | > 0.5 | 0.975 | > 20 | 0.984 | > 5
66 | VMRC-LCD (lung adenocarcinoma, adherent) | 0.984 | > 0.5 | – | – | 0.991 | > 5
67 | Hs746T (stomach, adherent) | 0.978 | > 0.5 | 0.949 | > 20 | 0.981 | > 5
68 | SK-MEL-5 (melanoma, adherent) | 0.974 | > 0.5 | 0.977 | > 20 | 0.919 | > 5
69 | UWB1.289 (ovary, adherent) | 0.973 | > 0.5 | 0.966 | > 20 | 0.98 | > 5
70 | NCI-H835 (lung carcinoid, suspension) | 0.987 | > 0.5 | – | – | 0.989 | > 5
71 | OVCA420 (ovary, adherent) | 0.979 | > 0.5 | 0.98 | > 20 | 0.976 | > 5
72 | CL-34 (large intestine, adherent) | 0.985 | > 0.5 | – | – | 0.967 | > 5
73 | JHOS-2 (ovary, adherent) | 0.976 | > 0.5 | 0.983 | > 20 | 0.979 | > 5
74 | ESO51 (oesophagus, semi-adherent) | 0.977 | > 0.5 | 0.975 | > 20 | 0.935 | > 5
75 | OV-56 (ovary, adherent) | 0.985 | > 0.5 | 0.986 | > 20 | 0.989 | > 5
76 | IGROV-1 (ovary, adherent) | 0.969 | > 0.5 | – | – | 0.973 | > 5
77 | PWR-1E (prostate, adherent) | 0.986 | > 0.5 | – | – | 0.984 | > 5
78 | MEL-HO (melanoma, adherent) | 0.985 | > 0.5 | – | – | 0.986 | > 5
79 | OV-17R (ovary, adherent) | 0.973 | > 0.5 | 0.974 | > 20 | 0.98 | > 5
80 | NCI-N87 (stomach, adherent) | 0.97 | > 0.5 | – | – | 0.955 | > 5
81 | BALL-1 (B-cell leukaemia, suspension) | 0.997 | > 0.5 | – | – | 0.997 | > 5
